Test results taken from PubChem BioAssay AID504706 (National Center for Advancing Translational Sciences (NCATS), 2011).
The whole screen tested about 320,000 compounds, of which about 200 (0.062%) were called active. Inconclusive results, whose numbers are uncertain, are shown with a selection of clear calls. Calls follow the shape of the dose curve; as a rule, active = well fitted activation curve with a large enough effect; inconclusive = small, poorly fitted or top-dose-only effect; inactive = no such curve, though single readings can be large or run the other way. No potency is given beside an inconclusive call; the fits are too rough.
Potency is read from the fitted curve at half-maximal effect; tags tell the direction and shape of the fitted curve.

Test: qHTS assay for re-activators of p53 using a Luc reporter; also: nearly all actives have a fitted effect of over 45% in size
Settings: H1299 p53-A138V BP100-luciferase reporter, luminescence, 24 h; series mostly up to 92.2 µM
Outline: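 H1299 (p53-null), stable ts p53-A138V + BP100-Luc; 1000 cells/well, Opti-MEM/10% FBS; cpd 4 pt, 1:5; 24 h, 37 deg C, 5% CO2; detection reagent 10 min RT; luminescence.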
With `O=C(CN1CCCCCC1)Nc1ccc(Oc2ccccc2)cc1` the Potency was “inactive”. For `O=C(N[C@@H](Cc1ccccc1)C(=O)OCc1ccccc1)c1nc[nH]c1C(=O)N1CCN(c2ccccc2)CC1`, the Potency was “inactive”. For `COc1cccc(CNC(=O)CCl)c1`, the Potency was inconclusive [activator, partial curve, poor fit]. In the case of `O=[N+]([O-])c1cccc2ccc(/C=C/c3ccc(Cl)cc3)nc12`, the Potency is reported as inconclusive [activator, full curve, poor fit]. In the case of `CC[C@@]1(C(=O)OC)N[C@H](CN(C)C(=O)COC)[C@@H]2C(=O)N(C)C(=O)[C@@H]21`, the Potency is reported as “inactive”. In the case of `O=C1/C(=C\c2ccco2)SC(=S)N1c1ccc(O)cc1`, the Potency is reported as “inactive”. With `O=C1C=C(c2ccc3ccccc3c2)C[C@@H](c2ccc(F)cc2)C1` the Potency was inconclusive [activator, single point]. With `COc1ccccc1C(=O)Nc1cccc(SC)c1` the Potency was inconclusive [activator, partial curve, poor fit]. In the case of `O=C(CC(Nc1ccccc1)c1ccc(F)cc1)c1ccccc1` (stereo not given), the Potency is reported as inconclusive [activator, full curve, poor fit]. For `Cc1ccc2oc(-c3cccc(NC(=O)c4ccc(Br)o4)c3)nc2c1`, the Potency was inconclusive [activator, partial curve, poor fit]. With `O=C(Nc1nc(-c2ccncc2)cs1)c1ccco1` the Potency was “inactive”. In the case of `O=C(Nc1ccc2ccccc2c1)c1cccnc1`, the Potency is reported as inconclusive [activator, partial curve, poor fit]. With `Cc1ccc2c(CN(C)Cc3ccc(Cl)cc3)cc(=O)oc2c1` the Potency was inconclusive [activator, partial curve, poor fit]. With `C/C(=C\C(=O)c1ccccc1)Nc1ccc2c(c1)OCO2` the Potency was inconclusive [activator, full curve, poor fit]. With `O=C(/C=C/c1ccccc1Cl)NCCc1ccccc1` the Potency was inconclusive [activator, partial curve, poor fit]. With `CCSc1ccc(C(=O)Nc2ccc(Br)cn2)cc1[N+](=O)[O-]` the Potency was inconclusive [activator, partial curve, poor fit]. With `N#Cc1nc(COc2ccc(Cl)cc2)oc1N1CCN(Cc2ccccc2)CC1` the Potency was “inactive”. For `COC(=O)C1=C(C)NC(=O)/C1=C\c1cc(C)n(-c2c(C)cccc2C)c1C`, the Potency was inconclusive [activator, single point]. In the case of `Cc1ccccc1C(=O)NNC(=S)NC(=O)c1cccs1`, the Potency is reported as inconclusive [activator, partial curve, poor fit]. For `CCCCN(CCCC)Cc1ccc(C(=O)NNC(=O)Nc2ccc(Cl)cc2)o1`, the Potency was inconclusive [activator, single point]. With `NC(=O)C1CCN(C(=O)c2ccc(NS(=O)(=O)c3ccc(F)cc3)cc2)CC1` the Potency was inconclusive [activator, single point]. With `CCCOc1ccc(-c2nnc(-c3ccco3)o2)cc1` the Potency was inconclusive [activator, partial curve, poor fit]. For `COc1ccc(Nc2oc(-c3ccc(OC)cc3)nc2C#N)cc1`, the Potency was “inactive”. With `COc1ccc(-c2ccnc3nc(-n4cccc4)nn23)cc1` the Potency was “inactive”. In the case of `CCOc1ccc(/C=N/NC(=O)c2ccoc2C)cc1OC`, the Potency is reported as “inactive”. For `O=C(NCCC(=O)N1CCc2ccccc21)c1ccco1`, the Potency was inconclusive [activator, full curve]. In the case of `O=c1oc(-c2ccco2)nc2ccccc12`, the Potency is reported as “inactive”. In the case of `COc1ccc(-c2cc3c(=O)n(CC(=O)NCCCN4CCN(Cc5ccccc5)CC4)ncn3n2)cc1`, the Potency is reported as inconclusive [activator, partial curve, poor fit]. In the case of `COc1cc(C=O)ccc1OCCOc1ccccc1[N+](=O)[O-]`, the Potency is reported as inconclusive [activator, partial curve, poor fit]. In the case of `Cc1ccc(C)c(N2C(=N)S/C(=C\c3ccc(-c4ccccc4C(=O)O)o3)C2=O)c1`, the Potency is reported as “inactive”. In the case of `COc1ccccc1C(=O)Nc1c2c(nn1-c1cccc(C)c1C)CS(=O)(=O)C2`, the Potency is reported as inconclusive [activator, full curve, poor fit]. In the case of `CCCC(c1nnnn1CCc1ccccc1)N1CCN(C(=O)c2ccco2)CC1` (stereo not given), the Potency is reported as inconclusive [activator, single point]. In the case of `Cc1cccc2[nH]c(-c3ccc(NC(=O)c4ccco4)cc3)nc12`, the Potency is reported as inconclusive [activator, partial curve, poor fit]. In the case of `COc1ccc(CNC(=S)Nc2ccc(S(N)(=O)=O)cc2)cc1`, the Potency is reported as “inactive”. In the case of `CC/C(=N\NC(=O)c1csc(C)c1C)c1cccs1`, the Potency is reported as “inactive”. In the case of `CN(C)C=Nc1ncc2c([nH]c3ccccc32)c1C#N`, the Potency is reported as inconclusive [activator, partial curve, poor fit]. With `CCCN1CCC(NC(=O)Cc2ccc(C)cc2)CC1` the Potency was inconclusive [activator, partial curve, poor fit]. In the case of `Oc1c(Cl)cc(Cl)cc1/C=C/c1ccc2cccc(O)c2n1`, the Potency is reported as “inactive”. For `COc1ccc2cc(CN(CCc3ccccc3)Cc3nnnn3Cc3ccco3)c(=O)[nH]c2c1`, the Potency was “inactive”. In the case of `Cn1c(SCc2ccccc2)nnc1-c1ccc(O)cc1`, the Potency is reported as inconclusive [activator, partial curve, poor fit]. For `CN(C)c1ccc(C(=O)Nc2nc3c(s2)CCCC3)cc1`, the Potency was inconclusive [activator, partial curve, poor fit]. With `CCC(C(=O)NCCCN1CCN(C)CC1)n1nc(C)n2c(cc3occc32)c1=O` (stereo not given) the Potency was inconclusive [activator, single point]. In the case of `COc1ccccc1NC(=S)N1CCOCC1`, the Potency is reported as “inactive”. In the case of `COc1ccc2[nH]c(=O)c3c(c2c1)OC(C)(C)C=C3`, the Potency is reported as inconclusive [activator, partial curve, poor fit]. In the case of `Cc1nnsc1C(=O)N/N=C/c1c(F)cccc1Cl`, the Potency is reported as “inactive”. With `CCN(CC)S(=O)(=O)c1ccc(C(=O)OCC(=O)Nc2sc3c(c2C#N)CCCCC3)cc1` the Potency was inconclusive [activator, single point]. In the case of `N/C(Cc1cccs1)=N\OC(=O)COc1ccccc1Cl`, the Potency is reported as inconclusive [activator, partial curve, poor fit]. For `Cc1cc(/C=C2\SC(=S)NC2=O)c(C)n1-c1ccccc1`, the Potency was inconclusive [activator, full curve, poor fit]. In the case of `Nc1[nH]c(N=NC(=O)c2ccccc2O)c2ccccc12`, the Potency is reported as inconclusive [activator, partial curve, poor fit]. With `Cc1csc(NC(=O)Nc2cccc(Cl)c2)n1` the Potency was active: 28.2 µM. In the case of `CC(C)(C)c1ccc2c(c1)C(=O)c1ccccc1C2=O`, the Potency is reported as inconclusive [activator, partial curve, poor fit]. For `O=C1c2ccccc2-c2nc3ccccc3n21`, the Potency was inconclusive [activator, single point]. With `O=C(NCc1ccccc1)c1cc(-c2ccco2)on1` the Potency was inconclusive [activator, partial curve, poor fit]. For `Cc1ccc(NC(=O)c2cc(-c3ccco3)on2)cc1C`, the Potency was inconclusive [activator, partial curve, poor fit]. With `CC(OC(=O)c1ccco1)C(=O)Nc1nc(-c2ccccc2)cs1` (stereo not given) the Potency was inconclusive [activator, partial curve, poor fit]. With `COc1ccc(C(=O)NC2CC2)cc1OC1CCN(Cc2cc(C)c(C)cc2C)CC1` the Potency was “inactive”. With `Cc1cc(C(=O)Nc2ccc(CC(=O)O)cc2)c(C)o1` the Potency was “inactive”. For `CCn1c(C(=O)N2CCC(C(=O)NCc3ccc(OC)cc3)CC2)cc2sccc21`, the Potency was “inactive”. With `O=C(NCc1ccco1)c1cc(-c2ccccc2)on1` the Potency was inconclusive [activator, full curve, poor fit]. With `CCOC(=O)N1CCN(C(=O)c2ccc3nc4ccsc4c(=O)n3c2)CC1` the Potency was “inactive”. For `Cc1ccc(-n2nc3ccc(NC(=O)/C=C/c4ccco4)cc3n2)cc1`, the Potency was “inactive”. For `O=C(Oc1ccccc1)c1ccc2nsnc2c1`, the Potency was inconclusive [activator, partial curve, poor fit]. For `CC(C)(C)c1ccc(C(=O)N/N=C/c2ccccn2)cc1`, the Potency was inconclusive [activator, full curve, poor fit]. In the case of `Cc1cc(N)n(-c2ccc3ccccc3c2)n1`, the Potency is reported as inconclusive [activator, partial curve, poor fit]. In the case of `N#Cc1cnn2c1nc(N1CCOCC1)c1ccccc12`, the Potency is reported as inconclusive [activator, partial curve, poor fit]. In the case of `COc1ccc(C(=O)NNC(=S)NC(=O)c2ccccc2)cc1`, the Potency is reported as inconclusive [activator, full curve, poor fit]. In the case of `Oc1[nH]c2ccccc2c1C=Nc1ccccc1`, the Potency is reported as inconclusive [activator, single point]. For `C/C(=N\N1C(=O)c2ccccc2NC1c1ccco1)c1ccccc1O` (stereo not given), the Potency was “inactive”. For `CCN(CC)CCCNC(=S)N(Cc1cccs1)Cc1cc2cc3c(cc2[nH]c1=O)OCCO3`, the Potency was inconclusive [activator, single point]. In the case of `CCc1ccc(-c2ccc(C(=O)O)c(C)n2)cc1`, the Potency is reported as inconclusive [activator, partial curve, poor fit].
